Some of the results follow. Values were computed here from the reads of four pooled replicates and scatter widely.

For this assay, the target named is T1, Pho4 (S. cerevisiae) (UniProt P07270).
T1 sequence: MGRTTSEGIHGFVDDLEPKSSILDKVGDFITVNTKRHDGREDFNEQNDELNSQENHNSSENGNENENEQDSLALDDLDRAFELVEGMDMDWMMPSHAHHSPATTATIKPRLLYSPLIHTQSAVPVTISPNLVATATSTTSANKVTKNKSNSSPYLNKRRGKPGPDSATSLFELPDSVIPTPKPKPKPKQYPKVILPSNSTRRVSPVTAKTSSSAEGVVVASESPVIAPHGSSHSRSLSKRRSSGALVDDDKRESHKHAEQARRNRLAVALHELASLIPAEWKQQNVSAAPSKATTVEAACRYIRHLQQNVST
The assay is described as follows: relative binding free energy (BET-seq); higher = weaker binding. The note with it: reference: library average.
As to TCATGCACGTGGATTA, the “relative binding free energy” value is 0.11 kcal/mol.

TCTTTCACGTGATTTT: the “relative binding free energy” value turned out to be 0.38 kcal/mol. Turning to GCATACACGTGGGTGT, the “relative binding free energy” value is -0.12 kcal/mol.

With GATTTCACGTGAAGAT, the “relative binding free energy” value was found to be 0.39 kcal/mol. The same measure for TAGTTCACGTGTGCGA: 0.21 kcal/mol; for TATGGCACGTGTGCGT: -0.13 kcal/mol.

ACGGTCACGTGGAGAG: the “relative binding free energy” value is 0.2 kcal/mol. The same measure for TTTGGCACGTGCTTAA: -0.2 kcal/mol; for GTTTGCACGTGTTACA: 0.06 kcal/mol; for CTGGTCACGTGGTAAT: 0.07 kcal/mol.

With CATTACACGTGTGGTT, the “relative binding free energy” value came to 0.09 kcal/mol. Take GGGGTCACGTGGGTTG: the “relative binding free energy” value turned out to be 0.06 kcal/mol.

Consider AGGTTCACGTGTACGG, for which the “relative binding free energy” value was 0.37 kcal/mol. With ACGTGCACGTGGGTTG, the “relative binding free energy” value was -0.09 kcal/mol. Under CTGAGCACGTGGGAGG stands -0.28 kcal/mol. Under ACGGGCACGTGGGTCT stands -0.15 kcal/mol; under ATGATCACGTGGGCGT, -0.02 kcal/mol; under AGGGCCACGTGGGTGG, -0.34 kcal/mol. Under TCGGGCACGTGTAATT stands 0.05 kcal/mol; under GAGATCACGTGGAATG, 0.35 kcal/mol. Take TAGGACACGTGGGGTA: the “relative binding free energy” value was -0.05 kcal/mol. Under GGTTTCACGTGTGATT stands 0.41 kcal/mol; under TTTGGCACGTGTGGGT, 0.11 kcal/mol; under TTCGGCACGTGAGGTA, 0.16 kcal/mol.

GTGAGCACGTGTTGTG: the “relative binding free energy” value was -0.04 kcal/mol.

Take TTTGTCACGTGCGGTT: the “relative binding free energy” value turned out to be 0.16 kcal/mol. Under TTGATCACGTGGAGAT stands 0.17 kcal/mol; under TCTGACACGTGGGGCA, -0.02 kcal/mol; under GGGAGCACGTGATTTA, 0.11 kcal/mol. Under GTAATCACGTGGGGGA stands -0.06 kcal/mol; under AAGAGCACGTGTATGT, 0 kcal/mol. Under TTTAGCACGTGACTTA stands 0.06 kcal/mol. For the sequence ATTGTCACGTGAAGGC, the “relative binding free energy” value was found to be 0.3 kcal/mol. The same measure for TATTTCACGTGGTTAG: 0.17 kcal/mol; for TTGTTCACGTGGATAT: 0.2 kcal/mol. Consider GTAGACACGTGGGGTC, for which the “relative binding free energy” value was -0.14 kcal/mol. Under GTTCTCACGTGCTGGT stands 0.21 kcal/mol; under TTAGTCACGTGAGGTG, 0.23 kcal/mol; under TGTTACACGTGGTCCG, 0.08 kcal/mol. With GGCTACACGTGAGTGT, the “relative binding free energy” value is 0.34 kcal/mol. Under AATAGCACGTGGGTGT stands -0.15 kcal/mol; under TATACCACGTGTTTTG, -0.03 kcal/mol. As to GAGTGCACGTGAGATG, the “relative binding free energy” value amounted to 0.21 kcal/mol. Under TGGGACACGTGTTTAG stands 0.01 kcal/mol; under ATTTACACGTGGTTAA, 0.03 kcal/mol; under TTGCGCACGTGGTGCA, -0.18 kcal/mol. Under TGTAACACGTGGATAG stands 0.05 kcal/mol. The same measure for GGGTTCACGTGGAAGG: 0.24 kcal/mol. As to GTGAGCACGTGTGAAG, the “relative binding free energy” value came out at 0.02 kcal/mol. As for GATGACACGTGTATTA, the “relative binding free energy” value was found to be 0.18 kcal/mol.

AGGGTCACGTGATGTA: the “relative binding free energy” value worked out at 0.3 kcal/mol. The same measure for TAAGGCACGTGAAAGT: 0.08 kcal/mol; for TGCAGCACGTGCGTGT: -0.07 kcal/mol. Turning to TATTTCACGTGCTGTA, the “relative binding free energy” value was 0.28 kcal/mol. On to GATTCCACGTGGTTTG, for which the “relative binding free energy” value was found to be 0.06 kcal/mol. Take TGGAACACGTGCGTTT: the “relative binding free energy” value was 0.03 kcal/mol. Regarding AGGATCACGTGGGGTA, the “relative binding free energy” value amounted to 0 kcal/mol. The same measure for GTCGGCACGTGATGCT: 0.15 kcal/mol.

On to GTGTTCACGTGTTTTT, for which the “relative binding free energy” value amounted to 0.32 kcal/mol. The same measure for TAGATCACGTGCTTTG: 0.19 kcal/mol; for GGATACACGTGATGGG: 0.33 kcal/mol.

As to TCGCTCACGTGGTGGT, the “relative binding free energy” value was found to be 0.1 kcal/mol. TGAAACACGTGAGTTT: the “relative binding free energy” value was 0.2 kcal/mol. With TGCAACACGTGTGTGT, the “relative binding free energy” value turned out to be 0.08 kcal/mol. Under ATTCACACGTGTTTTT stands 0.01 kcal/mol. Under AATCTCACGTGTTGTA stands 0.1 kcal/mol; under TATTACACGTGAGTTT, 0.23 kcal/mol; under ATGTTCACGTGATACG, 0.24 kcal/mol.

For the sequence GTGGGCACGTGTACGG, the “relative binding free energy” value was -0.04 kcal/mol. Turning to TTGACCACGTGTTGGG, the “relative binding free energy” value was -0.05 kcal/mol. With AAGGCCACGTGTGCGT, the “relative binding free energy” value was -0.1 kcal/mol.

GTAGGCACGTGGGCAG: the “relative binding free energy” value is -0.2 kcal/mol. The same measure for TTAGTCACGTGGGTTC: 0.03 kcal/mol; for ATGTTCACGTGTTGGC: 0.18 kcal/mol. With CAAGTCACGTGGGTTT, the “relative binding free energy” value turned out to be 0.09 kcal/mol. On to GTTGGCACGTGGTGCA, for which the “relative binding free energy” value is -0.28 kcal/mol.

For the sequence AGTATCACGTGCTGAG, the “relative binding free energy” value is 0.16 kcal/mol.

As to GGAGGCACGTGGCGCG, the “relative binding free energy” value was -0.22 kcal/mol. Under AACTTCACGTGATTGT stands 0.32 kcal/mol.

Take TGTGGCACGTGATGGC: the “relative binding free energy” value is -0.05 kcal/mol.

In the case of AGGGTCACGTGAGCAG, the “relative binding free energy” value turned out to be 0.07 kcal/mol. Under TTTAGCACGTGAGGCA stands 0.21 kcal/mol. Take GTAAACACGTGAGGGG: the “relative binding free energy” value was found to be 0.24 kcal/mol. The same measure for GGGAGCACGTGTGAGC: 0.2 kcal/mol; for CTTGGCACGTGCTGAG: -0.2 kcal/mol; for TGGATCACGTGCGTGC: 0.03 kcal/mol. Under AAGCGCACGTGGTATG stands -0.22 kcal/mol. The same measure for TTTAGCACGTGGGGGC: -0.12 kcal/mol; for GGTTACACGTGGGTAA: 0.02 kcal/mol; for GTATACACGTGGAATG: 0.14 kcal/mol. With CGTTACACGTGTGGTA, the “relative binding free energy” value came to 0.23 kcal/mol. The same measure for ACAGGCACGTGTGTGG: -0.05 kcal/mol; for TTGGCCACGTGCTGGG: -0.15 kcal/mol; for TGGACCACGTGTGGGT: -0.01 kcal/mol. With TTATACACGTGAGGGC, the “relative binding free energy” value worked out at 0.43 kcal/mol. For AATATCACGTGTTATG, the “relative binding free energy” value turned out to be 0.02 kcal/mol.

TTTATCACGTGGGACA: the “relative binding free energy” value turned out to be 0.15 kcal/mol. In the case of TGAATCACGTGTCTTG, the “relative binding free energy” value came to 0.1 kcal/mol. In the case of TGTCTCACGTGGGTTG, the “relative binding free energy” value stood at 0.02 kcal/mol. Under ATATGCACGTGGAGAG stands 0.07 kcal/mol. On to GGTTCCACGTGTTGAT, for which the “relative binding free energy” value was 0.14 kcal/mol. As to AGTTACACGTGTTGTA, the “relative binding free energy” value worked out at 0.01 kcal/mol.

Take AGGGACACGTGGAGTA: the “relative binding free energy” value amounted to 0.02 kcal/mol. For GTATGCACGTGTTATC, the “relative binding free energy” value is -0.03 kcal/mol. In the case of TGCGTCACGTGAGAGT, the “relative binding free energy” value stood at 0.27 kcal/mol. Turning to GGGCTCACGTGAATGT, the “relative binding free energy” value worked out at 0.49 kcal/mol. As to GATGGCACGTGAGAAG, the “relative binding free energy” value was found to be 0.12 kcal/mol.

For CCGGGCACGTGGCAGG, the “relative binding free energy” value is -0.17 kcal/mol.

Take ATTTACACGTGGGGTA: the “relative binding free energy” value is -0.02 kcal/mol. Turning to AAGTGCACGTGGAACG, the “relative binding free energy” value stood at 0.06 kcal/mol. Under AAGTTCACGTGCGGTG stands 0.36 kcal/mol.

As for TGATTCACGTGGAGGC, the “relative binding free energy” value was 0.23 kcal/mol.

Turning to ACACTCACGTGGGTGG, the “relative binding free energy” value turned out to be 0.02 kcal/mol. With TGCTACACGTGAGGTT, the “relative binding free energy” value amounted to 0.32 kcal/mol. As to GAATCCACGTGGGGTG, the “relative binding free energy” value is -0.07 kcal/mol.

The values above are taken from the BET-seq Pho4 binding data (Le et al. 2018).
